Test in all cases: mutation enrichment score (mutant vs wild-type peptide binding to bait); baits are purified protein domains named by gene / domain / UniProt id / residues; peptides come from disordered regions of human proteins; higher = mutation enhances binding relative to wild type
Experiment [1] has as its target T1, CSKP_Pkinase__O14936_1_340.
T1 chain: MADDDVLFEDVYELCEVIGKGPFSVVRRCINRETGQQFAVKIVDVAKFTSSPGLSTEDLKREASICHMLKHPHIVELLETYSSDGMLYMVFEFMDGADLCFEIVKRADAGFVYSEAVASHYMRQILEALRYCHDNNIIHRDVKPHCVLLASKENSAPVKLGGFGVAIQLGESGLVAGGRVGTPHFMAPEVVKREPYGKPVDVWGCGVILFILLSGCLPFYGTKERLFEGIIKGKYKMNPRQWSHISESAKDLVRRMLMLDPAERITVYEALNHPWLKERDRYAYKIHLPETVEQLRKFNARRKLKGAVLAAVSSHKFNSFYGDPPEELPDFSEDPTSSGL
To be noted: wild-type window: ….

Another experiment deals with T2, DOK1_PTB__Q99704_151_256.
T2 chain: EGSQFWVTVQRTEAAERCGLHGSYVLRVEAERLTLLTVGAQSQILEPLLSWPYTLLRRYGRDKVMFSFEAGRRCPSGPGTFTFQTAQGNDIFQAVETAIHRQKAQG
To be noted: number of wild-type / mutant comparisons summed (bounds the score): 5; paper call: no_effect; wild-type window: ….

In experiment [2] the target is T3, EIF3B_RRM__P55884_172_274.
T3 chain: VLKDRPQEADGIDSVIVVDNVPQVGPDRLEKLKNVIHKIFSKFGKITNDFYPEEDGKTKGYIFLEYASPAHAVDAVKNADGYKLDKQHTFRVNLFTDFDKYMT
To be noted: number of wild-type / mutant comparisons summed (bounds the score): 6; paper call: no_effect; wild-type window: ….

Experiment [3] addresses MAP1LC3A_ATG8__Q9H492_2_121. To be noted: number of wild-type / mutant comparisons summed (bounds the score): 12; paper call: diminished; wild-type window: ….
In experiment [4] the target is MAP1LC3B_ATG8__Q9GZQ8_2_119. To be noted: number of wild-type / mutant comparisons summed (bounds the score): 12; paper call: diminished; wild-type window: ….
Experiment [5] deals with DMD_WW-EF__P11532_3055_3088. To be noted: wild-type window: ….
The target of experiment [6] is NEDD4_WW_2_P46934_765_803. To be noted: wild-type window: ….
NEDD4_WW_2_P46934_765_803, sequence (chain, as listed by the source): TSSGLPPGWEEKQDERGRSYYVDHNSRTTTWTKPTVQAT
The target in experiment [7] is SMURF2_WW_3_Q9HAU4_298_330. To be noted: wild-type window: ….
A further experiment concerns the target WWTR1_WW__Q9GZV5_122_160. To be noted: wild-type window: ….
The next experiment addresses T4, TLN1_PTB__Q9Y490_309_401.
T4 chain: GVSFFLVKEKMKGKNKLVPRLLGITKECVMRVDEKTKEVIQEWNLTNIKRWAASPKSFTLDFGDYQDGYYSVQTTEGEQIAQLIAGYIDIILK
To be noted: number of wild-type / mutant comparisons summed (bounds the score): 12; paper call: no_effect; wild-type window: ….

The target in a further experiment is T5, TLN2_PTB__Q9Y4G6_312_417.
T5 chain: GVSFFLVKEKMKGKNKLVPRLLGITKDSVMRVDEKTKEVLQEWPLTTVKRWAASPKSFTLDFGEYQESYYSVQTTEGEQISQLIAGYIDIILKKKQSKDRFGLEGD
To be noted: number of wild-type / mutant comparisons summed (bounds the score): 12; paper call: no_effect; wild-type window: ….

For experiment [8], the target named is GABARAPL1_ATG8__Q9H0R8_2_115. To be noted: number of wild-type / mutant comparisons summed (bounds the score): 18; paper call: diminished; wild-type window: ….
The mark [9] stands for this setting: number of wild-type / mutant comparisons summed (bounds the score): 12, paper call: enhanced.
Setting [10] is: number of wild-type / mutant comparisons summed (bounds the score): 12, paper call: no_effect.
The mark [11] stands for this setting: number of wild-type / mutant comparisons summed (bounds the score): 6, paper call: no_effect.
[12] abbreviates: number of wild-type / mutant comparisons summed (bounds the score): 12, paper call: diminished.

Some of the results follow. This is a noisy data set.

This is an account of results in the supplement of paper PMC11369174, “Proteome-scale characterisation of motif-based interactome rewiring by disease mutations” (Molecular Systems Biology, 2024).

WWTR1_WW__Q9GZV5_122_160, sequence (chain, as listed by the source): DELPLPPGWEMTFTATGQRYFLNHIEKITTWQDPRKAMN

B1: R723W R723W (peptide)
chain: TDHGAEIVYKSPVVSGDTSPWHLSNVSSTGSIDMVDSPQLA
For B1, the mutation enrichment score in experiment [1] (setting [9]) is 12.

B2: G521V G521V (peptide)
chain: GAGATHSPPTDLVWKAQNTWVCGNSLRTALINSTGEEVAMR
As to B2, in experiment [1] (setting [10]), the mutation enrichment score stood at 5.1.

B3: R297W R297W (peptide)
chain: HSYDVLVAMTIFFNTHNEPVWQLAIFCPHVALQTTICEVLE
Turning to B3, the mutation enrichment score in experiment [1] (setting [10]) amounted to 4.

B4: L1226I L1226I (peptide)
chain: VSAALQVTQTLQWVVRNWTDIENSIVSVERMQDYAWTPKEA
Consider B4, for which the mutation enrichment score is -1 with DOK1_PTB__Q99704_151_256, -4 in experiment [2], -9.5 in experiment [3] and -8.5 in experiment [4].

B5: I549T I549T (peptide)
chain: LSMPSTSHCTPPPPYPTDCSTVSFLARLGCSSCLDYFTTQG
With B5, the mutation enrichment score was -2.4 in [5] (setting [11]), -2.4 in experiment [6] (setting [11]), -1.8 in experiment [7] (setting [11]) and -1.5 with WWTR1_WW__Q9GZV5_122_160 (setting [11]).

B6: C612W C612W (peptide)
chain: KTMSGTFLLRFSESSEGGITWSWVEHQDDDKVLIYSVQPYT
B6: in the experiment with DOK1_PTB__Q99704_151_256, the mutation enrichment score worked out at 5.

B7: W520G W520G (peptide)
chain: AGAGATHSPPTDLVWKAQNTGGCGNSLRTALINSTGEEVAM
Turning to B7, the mutation enrichment score in experiment [1] (setting [10]) was -2.

B8: R333P R333P (peptide)
chain: LVITYGLNAGAFYALSTLLNPMVIWHYPGEEVNAGRIGLTI
On to B8, for which the results for the mutation enrichment score (in [1] (setting [9]); with TLN1_PTB__Q9Y490_309_401; with TLN2_PTB__Q9Y4G6_312_417) were 10, 1.8 and 0.26, respectively.

B9: S192Y S192Y (peptide)
chain: IYDLFVWMHYYVSMDALLGGYEIWRDIDFAHEAPAFLPWHR
In the case of B9, the mutation enrichment score with DOK1_PTB__Q99704_151_256 amounted to 2.

B10: P613L P613L (peptide)
chain: RVGFGSGQPPPYDHLFEVALLKTAHHFVIRKTEELLKKAKG
On to B10, for which the mutation enrichment score in experiment [5] (setting [11]) is -3; in experiment [6] (setting [11]) it was 0.26; in experiment [7] (setting [11]), -5.6; with WWTR1_WW__Q9GZV5_122_160 (setting [11]), -3.8.

B11: D1959A D1959A (peptide)
chain: ENSSPEKTDATSSTTSPPSYASVTKPDKEKYEQDRTEKEDK
Consider B11, for which the mutation enrichment score in experiment [5] (setting [9]) amounted to 10; in [6] (number of wild-type / mutant comparisons summed (bounds the score): 18, paper call: enhanced) it was 11; in experiment [7] (setting [9]), 11; in the experiment with WWTR1_WW__Q9GZV5_122_160 (setting [9]) it was 11.

B12: D199N D199N (peptide)
chain: MHYYVSMDALLGGSEIWRDINFAHEAPAFLPWHRLFLLRWE
As for B12, in the experiment with DOK1_PTB__Q99704_151_256, the mutation enrichment score was -1.8.

B13: W2658L W2658L (peptide)
chain: AESKTLIYQMAPAVSKTEDVLVRIEDCPINNPRSGRSPTGN
With B13, the mutation enrichment score is -9 in [1] (number of wild-type / mutant comparisons summed (bounds the score): 18, paper call: diminished) and -7 in experiment [8].

B14: R18064H R18064H (peptide)
chain: VNPEAIDTTCNSVDLTWQPPHHDGGSKILGYIVEYQKVGDE
In the case of B14, in [5] (setting [11]), the mutation enrichment score was -1.

B15: S46R S46R (peptide)
chain: NGRSFHKTCFHCMACRKALDRTTVAAHESEIYCKVCYGRRY
Consider B15, for which the mutation enrichment score in the experiment with DOK1_PTB__Q99704_151_256 came out at 2.

B16: P57S P57S (peptide)
chain: QSELQPPAPSEDIWKKFELLSTPPLSPSRRSGLCSPSYVAV
Consider B16, for which the mutation enrichment score in experiment [1] (setting [10]) turned out to be 1.7.

B17: T58P T58P (peptide)
chain: SELQPPAPSEDIWKKFELLPPPPLSPSRRSGLCSPSYVAVT
As for B17, the mutation enrichment score in experiment [1] (setting [10]) was determined as 2.

B18: T420I T420I (peptide)
chain: YTPPVTSGMSLGMSATTHYHIYLPPPYPGSSQSQSGPFQTS
For the molecule B18, the mutation enrichment score in experiment [5] (setting [11]) was -4; in [6] (setting [12]), -8; in experiment [7] (setting [11]), -3; with WWTR1_WW__Q9GZV5_122_160 (setting [12]), -12.

B19: T420N T420N (peptide)
chain: YTPPVTSGMSLGMSATTHYHNYLPPPYPGSSQSQSGPFQTS
For B19, the mutation enrichment score was 5.2 in experiment [5] (setting [9]), 11 in experiment [6] (setting [9]), 5.5 in experiment [7] (setting [9]) and 6.9 with WWTR1_WW__Q9GZV5_122_160 (setting [9]).
